In all, about 43,000 compounds went through this assay and about 200 (0.47%) were called active. About 12% were inconclusive and are not listed. Calls come from the whole dose curve; as a rule, active = well fitted cell-killing curve with a large enough effect; inconclusive = small, poorly fitted or top-dose-only effect, or effect the other way; inactive = flat fitted curve, though single readings scatter. The list shows a part of the results.
Test: Cell viability qHTS assay in S16 Pmp22-F2sN cells; note: nearly all actives have a fitted effect of over 65% in size
Conditions: S16 Pmp22-F2sN Schwann cells (luciferase reporters placed in the Pmp22 gene) viability, CellTiter-Glo, 24 h; series mostly up to 57.5 µM; activity change, negative = cytotoxicity: at the top concentration
Procedure, shortened: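 Seed 500-1,000 S16 Pmp22-F2sN cells per well in phenol-red-free DMEM with 10% heat-inactivated FBS; pin-add 23 nL compound; incubate 24 h at 37C; add CellTiter-Glo, wait 15 min protected from light; read luminescence.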
% is set by controls: 0 for no effect and ±100 for the full control effect.

Row | Structure (SMILES) | activity change, negative = cytotoxicity
1 | CCN1CCN(CCCNC(=O)c2cc3c(=O)n(C)c4ccccc4c3s2)CC1 | inactive: -9.18%
2 | O=C(NCCc1ccccc1)c1cnc2sc(N3CCCC3)nn2c1=O | inactive: 13.1%
3 | CCCc1nn2c(=O)cc(COC(=O)c3cccc(NC(=O)COc4ccccc4C)c3)nc2s1 | inactive: -3%
4 | COc1cc(OC)c(NC(=O)N2CCc3cc(OC)c(OC)cc3C2CC(=O)O)cc1Cl (stereo not drawn) | inactive: 22.9%
5 | COc1ccc(C(=O)Nc2nnc(C)s2)cc1 | inactive: 28.1%
6 | CCCCOC(=O)CSc1nnc(-c2ccc(C)cc2)o1 | inactive: 5.29%
7 | COc1ccc(N2CCN(c3ncnc4onc(-c5ccc(F)cc5)c34)CC2)cc1 | inactive: 3.37%
8 | Cc1ccc(CCNC(=O)c2ccc3c(c2)N(Cc2ccccc2)C(=O)c2ccccc2S3=O)cc1 (stereo not drawn) | inactive: -12%
9 | Cc1cccc(NC(=O)c2ccc(F)c(S(=O)(=O)N3CCC4(CC3)OCCO4)c2)c1 | inactive: -23.8%
10 | O=C(CSc1nnc(-c2ccc(Cl)cc2)o1)Nc1ccc(F)cc1 | inactive: -0.247%
11 | CC(=O)N1CCc2c(sc3c2c(=O)n(CCc2ccccc2)c(=O)n3CC(=O)Nc2ccc(C)c(F)c2)C1 | inactive: -19.9%
12 | COc1cccc2c1Oc1ncccc1N(c1ccc(C(=O)NCc3ccccc3Cl)s1)C2 | inactive: -19.4%
13 | Cc1ccc2c(c1)Cc1c(nc(-c3ccc(Cl)cc3)nc1SCC(=O)N1CCCCC1)O2 | inactive: -6.74%
14 | Cc1ccc2onc(CNC(=O)Nc3cc(F)ccc3F)c2c1 | inactive: -3.44%
15 | Cc1ccn2c(Nc3ccc4c(c3)OCCO4)c(-c3cccs3)nc2c1 | inactive: -1.26%
16 | Cc1ccc(Cl)cc1NC(c1ccc(F)cc1)c1nnc(-c2ccccc2)o1 (stereo not drawn) | inactive: 0.152%
17 | Cc1ccc(NC(=O)C(CC(C)C)NS(=O)(=O)c2ccc3c(c2)oc(=O)n3C)c(C)c1 (stereo not drawn) | inactive: 3.29%
18 | COc1ccc(Nc2cc(C)nc3c(C)c(C)ccc23)cc1 | inactive: 19.1%
19 | CCC1CN(C(=O)Nc2ccc(Br)cc2F)c2ccccc2S1 (stereo not drawn) | inactive: -1.04%
20 | O=C(NCC(c1ccc(Cl)cc1)N1CCCCC1)c1ccccc1F (stereo not drawn) | inactive: 10.2%
21 | COc1ccccc1N1CCN(C(=O)CSc2n[nH]c(-c3ccccc3Cl)n2)CC1 | inactive: 3.87%
22 | CCOc1ccc(OCC)c(NC(=O)CCc2nc3cccnc3n2-c2ccccc2)c1 | inactive: 10.8%
23 | COC(=O)C(NC(=O)CCc1c(C)nc2c(c(C)nn2-c2ccccc2)c1C)C(C)C (stereo not drawn) | inactive: 13.8%
24 | Cc1ccccc1NC(=O)[C@H](CSCc1ccccc1)N1Cc2ccccc2C1=O | inactive: -19.7%

Row | Structure (SMILES) | activity change, negative = cytotoxicity
25 | COc1ccc(NC(=O)Cn2c(=O)n(-c3cccc(C(F)(F)F)c3)c(=O)c3sccc32)cc1 | inactive: 2.8%
26 | C#CCn1c(C2CC(=O)N(c3ccc(OCC)cc3)C2)nc2ccccc21 (stereo not drawn) | inactive: -3.71%
27 | CCN(CC)C(=O)C1CCN(c2nnc(C)c3c(C)n(-c4ccc(Cl)cc4)nc23)CC1 | inactive: 2.67%
28 | O=C(NCc1ccc(F)cc1)c1cnc(N2CCCCC2)c2ccccc12 | inactive: 5.93%
29 | CCCOc1ccc(CNC(=O)C2CCCN(c3nc4c(C)cc(C)cc4s3)C2)cc1 (stereo not drawn) | inactive: -0.648%
30 | COc1cc(OC)cc(C(=O)Nc2ccc3nc(Nc4cccc(C(F)(F)F)c4)cc(C)c3c2)c1 | inactive: -5.63%
31 | CCOc1ccc(C(=O)NCC(c2ccco2)S(=O)(=O)c2cccs2)cc1 (stereo not drawn) | inactive: -1.29%
32 | Cc1ccccc1NC(=O)Cn1c(=O)n(Cc2ccccc2)c(=O)c2sc3ccccc3c21 | inactive: -0.598%
33 | COC(=O)c1ccc(C(=O)OC)c(NC(=O)c2cnn3c(C(F)F)cc(-c4ccccc4)nc23)c1 | inactive: 16.9%
34 | Cc1ccccc1-c1nn2c(=O)cc(CN3CCN(S(=O)(=O)c4ccc(Cl)cc4)CC3)nc2s1 | inactive: -6.83%
35 | COc1ccc(-c2nc(CNC(=O)Nc3ccccc3)c(C)o2)cc1 | inactive: -9.08%
36 | COc1ccccc1N1CCN(C(=O)c2cc(S(=O)(=O)N3CCC(C)CC3)cn2C)CC1 | inactive: 16.9%
37 | COc1ccc(-n2c(=O)c3ccccc3n(Cc3cccc(C)c3)c2=O)cc1 | inactive: 25%
38 | CCCN(c1ccc(C(C)C)cc1)S(=O)(=O)c1ccc2c(c1)oc(=O)n2CC(=O)OCC | inactive: -3.56%
39 | COc1cccc(Cn2c(CNS(=O)(=O)c3ccc(C(C)(C)C)cc3)nc3cccnc32)c1 | inactive: -4.05%
40 | Cc1ccccc1N(C)S(=O)(=O)c1nnc(NC(=O)C(C)C)s1 | inactive: -1%
41 | CCOC(=O)c1ccc(N2C(=O)c3n[nH]c(C)c3C2c2ccc(OCC)cc2)cc1 (stereo not drawn) | inactive: 23.5%
42 | O=C(Nc1nnc(S(=O)(=O)Nc2ccccc2)s1)C1CCCCC1 | inactive: 9.05%
43 | CCOC(=O)Cn1c(=O)n(CC2CCCO2)c2nc(-c3ccc(C(C)C)cc3)nc(C(N)=O)c21 (stereo not drawn) | inactive: 0.59%
44 | Cc1ccc(Cl)cc1N1CCN(C(=O)CCNS(=O)(=O)c2ccc3c(c2)CCN3C(=O)C2CC2)CC1 | inactive: -17.9%
45 | Cc1ccc(NC(=O)NCc2cccn2Cc2ccccc2)c(C)c1 | inactive: 3.19%
46 | CCCCCSc1ncnc2c1sc1nc(N3CCOCC3)c3c(c12)CCCC3 | inactive: 3.76%
47 | CCOC(=O)c1scc(-c2ccc(C)cc2)c1S(=O)(=O)N1CCN(c2ccccc2F)CC1 | inactive: -1.53%
48 | O=C(CCC1N=C2c3ccccc3N=C(SCc3cccc(F)c3)N2C1=O)NCc1cccs1 (stereo not drawn) | inactive: -11.3%
